As a reminder, the stoichiometry N is a count of units in the complex or per binding partner.

This data set deals with the molecule itself. In words: SEC; Superose 6 size-exclusion column; final buffer 20 mM HEPES pH 7.5, 200 mM NaCl; compared with a thyroglobulin standard at 660 kDa. On the technique in general: Size exclusion chromatography separates by hydrodynamic size, large species first.

B1: full-length wild-type human calcium/calmodulin-dependent protein kinase II alpha (CaMKIIα), isoform B ([…]), from the baculovirus-insect expression system (enzyme)
chain: not shown
modifications: NLS serine residues (Ser332-Ser335) phosphorylated in 52-53% of the sample; not phosphorylated at Thr286, Thr305 or Thr306
notes: Calcium/calmodulin-dependent protein kinase II alpha, human, isoform B ([…]; In the CaM-Sepharose step it was the pooled cation exchange eluate, not yet pure; also called BEVS CaMKII; CaMKIIα isoform 2; source: Tni insect cells (baculovirus, pFastBac), purified (Mono S or phosphocellulose cation exchange, CaM-Sepharose; Superose 6 before TEM); copies: 12
Regarding B1, the “stoichiometry N” value stood at 12.

The record behind these values is PMC10769071, “Methods optimization for the expression and purification of human calcium calmodulin-dependent protein kinase II alpha” (PLOS ONE, 2024).
